Assay results as given in PubChem BioAssay AID2675 (National Center for Advancing Translational Sciences (NCATS), 2010).
Several values for one entry are separate records, joined by “and”; a condition that tells them apart may be missing. Identical values can stand only once. Among all 280,000 compounds or so, about 100 (0.036%) were called active. This list was built around the results that the source calls inconclusive (neither active nor inactive); the mix of calls is not that of the screen. Calls follow the shape of the dose curve; as a rule, active = well fitted inhibition curve with a large enough effect in the signal ratio, with a control signal flat (not every such curve was filed as active); inconclusive = small, poorly fitted or top-dose-only effect, or effect the other way, or a change in a side signal; inactive = no such curve, though single readings can be large or run the other way; the % refers to the signal ratio. Potencies of inconclusive entries are doubtful fits and often do not repeat. A note “side channel” means that the fit belongs to a control or component signal, not to the main read-out.

These compounds were tested against Muscleblind-like protein 1 (Homo sapiens) (UniProt Q9NR56) (assay: qHTS Assay for Inhibitors of MBNL1-poly(CUG) RNA binding). Conditions: TR-FRET MBNL1-His/biotin-(CUG)12 binding, 665/545 ratio; activity change, negative = inhibition: at 57.5 µM (top of the series).
Summary of the method: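 TR-FRET readout: Ex 340 nm, 665/545 nm emission ratio, normalized to buffer-only (basal) and MBNL1-(CUG)12 controls. Complex of MBNL1-His with Biotin-(CUG)12, compounds 92 nM–58 uM, incubated 60 min at room temperature.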
% is scaled to controls: 0 for no effect and ±100 for the full control effect; potency is read from the fitted curve at half-maximal effect; tags tell the direction and shape of the fitted curve or compound fluorescence and quenching.

Chain of UniProt Q9NR56 (Q9NR56 whole entry, looked up): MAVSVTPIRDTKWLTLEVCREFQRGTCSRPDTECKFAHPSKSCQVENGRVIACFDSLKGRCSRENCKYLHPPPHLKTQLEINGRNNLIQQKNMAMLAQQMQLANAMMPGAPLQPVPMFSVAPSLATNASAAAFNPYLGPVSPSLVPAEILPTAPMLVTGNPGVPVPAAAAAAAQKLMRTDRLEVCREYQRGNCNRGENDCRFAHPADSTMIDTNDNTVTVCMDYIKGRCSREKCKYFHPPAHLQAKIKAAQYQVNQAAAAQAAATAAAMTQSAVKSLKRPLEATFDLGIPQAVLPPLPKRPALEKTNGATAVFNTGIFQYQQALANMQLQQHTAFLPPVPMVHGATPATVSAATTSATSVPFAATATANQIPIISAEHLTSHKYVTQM

Structure (SMILES) | activity change, negative = inhibition | Potency
COC(=O)c1ccccc1NC1OC(=O)c2ccccc21 (stereo not given) | inactive: 5.55% | 
Cc1cc(-c2nc3cccnc3s2)ccc1NS(=O)(=O)c1ccc2c(c1)OCCO2 |  | inconclusive: 35.5 µM [quencher, side channel, single point]
ONC=Nc1cccc2nonc12 |  | inconclusive: 31.6 µM [quencher, side channel, single point]
O=C1CN(c2nc(-c3cccnc3)nc3sc4c(c23)CCCC4)CCN1 | inactive: 16.3% | 
CC1CN(C(=O)COC(=O)c2ccc(N)c([N+](=O)[O-])c2)CC(C)O1 (stereo not given) |  | inconclusive: 8.91 µM [quencher, side channel, partial curve]
CC(NC(=S)NNS(=O)(=O)c1cccc([N+](=O)[O-])c1)c1ccccc1 (stereo not given) |  | inconclusive: 25.1 µM [quencher, side channel, partial curve]
COc1cccc(/C(O)=C2\C(=O)C(=O)N(c3ccccn3)C2c2cccc(OC)c2OC)c1 (stereo not given) |  | inconclusive: 35.5 µM [quencher, single point]
O=C(NCCN1CCOCC1)c1ccccc1[N+](=O)[O-] |  | inconclusive: 31.6 µM [quencher, side channel, single point]
COC(=O)c1cccc(NC(=O)c2ccccc2)c1 | inactive: -7.15% | 
O=C(COc1ccc([N+](=O)[O-])cc1)Nc1cccnc1 | inconclusive: 18.4% [phenotype inactive] | 
COc1cc([N+](=O)[O-])ccc1NC(=O)/C=C\C(=O)O |  | inconclusive: 11.2 µM [quencher, side channel, partial curve]
CC(C)C[C@H](NC(=O)c1nc[nH]c1C(=O)N[C@@H](CCCCNC(=O)OC(C)(C)C)C(=O)OC(C)(C)C)C(=O)OC(C)(C)C | inactive: -3.32% | 
COc1ccc2ccccc2c1-c1sc(Nc2ccccc2)n[n+]1-c1ccc(F)cc1 | inactive: 4.35% | 
CCN(CC)CCCC(C)Nc1c2ccc(Cl)cc2nc2ccc(OC)cc12 (stereo not given) |  | inconclusive: 17.8 µM [quencher, side channel, partial curve] and inconclusive: 20 µM [quencher, side channel, partial curve]
COC(=O)c1ccccc1COn1c(=O)c[n+]([O-])c2ccccc21 |  | inconclusive: 8.91 µM [quencher, side channel, partial curve]
COC(=O)c1[nH]c2ccc(C)cc2c1NC(=O)CN1CCCc2ccccc21 |  | inconclusive: 44.7 µM [quencher, side channel, single point]
COc1ccc2cc(/C(C)=N/NC(=O)c3cc(-c4cccnc4)nc4ccccc34)ccc2c1 |  | inconclusive: 100 µM [inhibitor, single point]
Cn1cc([N+](=O)[O-])c(C(=O)Nc2ccc3nc(-c4ccccc4)[nH]c3c2)n1 |  | inconclusive: 10 µM [quencher, side channel, partial curve]
S=c1c2c(nc3nc[nH]n13)CCC2 | inactive: -8.08% | 
Oc1ccc(NCc2cccc(OCc3ccccc3)c2)cc1 |  | inconclusive: 8.91 µM [quencher, side channel, full curve]

Structure (SMILES) | activity change, negative = inhibition | Potency
CCC1CCCCN1S(=O)(=O)c1ccc([N+](=O)[O-])cc1 (stereo not given) |  | inconclusive: 0.891 µM [quencher, side channel, full curve]
CNC(=S)Nc1ccc([N+](=O)[O-])cc1C |  | inconclusive: 22.4 µM [quencher, side channel, partial curve]
Cc1ccc(-n2c([O-])nc(-[n+]3ccccc3)c2C=O)cc1 |  | inconclusive: 14.1 µM [quencher, side channel, partial curve]
O=C(NC(=S)NC1CCSC1=O)c1cccc([N+](=O)[O-])c1 (stereo not given) |  | inconclusive: 31.6 µM [quencher, side channel, single point]
Cc1cc(N2CCN(S(=O)(=O)Cc3ccccc3)CC2)n2ncnc2n1 |  | inconclusive: 22.4 µM [quencher, side channel, single point]
COC(=O)c1ccccc1NC(=O)NN1CCN(C)CC1 |  | inconclusive: 28.2 µM [quencher, side channel, single point]
O=C(Nc1c(F)cccc1F)c1cnc(N2CCN(c3ccccn3)CC2)c2ccccc12 |  | inconclusive: 28.2 µM [quencher, side channel, single point]
O=C(O)C(Cc1ccccc1)N1C(=O)c2cccc3cccc(c23)C1=O (stereo not given) |  | inconclusive: 22.4 µM [quencher, side channel, partial curve]
Cc1[nH]c2ccc(Br)cc2c(=S)c1C/C=C/Cl | inactive: 12% | 
CCOCCCNC(=O)/C(C#N)=C/c1cc(OC)c(O)c([N+](=O)[O-])c1 |  | inconclusive: 10 µM [quencher, side channel, partial curve]
COc1ccccc1NC(=O)Cn1nc(-c2ccc3c(c2)OCCO3)ccc1=O |  | inconclusive: 14.1 µM [quencher, side channel, partial curve]
O=C(CNC(=S)NC(=O)c1cccc([N+](=O)[O-])c1)c1ccccc1 |  | inconclusive: 3.16 µM [quencher, side channel, partial curve, poor fit]
COc1ccc(C2=C/C(=C/c3cccnc3)C(=O)O2)cc1OC |  | inconclusive: 0.891 µM [quencher, side channel, single point]
COc1ccc(-c2nc(CNS(=O)(=O)c3ccc(OC)c(OC)c3)cs2)cc1 | inactive: 8.71% | 
Cc1n[nH]c(=O)c2c(NC(=O)CSc3nnc(-c4ccncc4)n3C)oc(C)c12 |  | inconclusive: 15.8 µM [quencher, side channel, partial curve]
O=C(NC1CCCCCC1)c1ccccc1-c1ccccc1 |  | inconclusive: 0.282 µM [fluorescent, side channel, full curve]
CCC1=NNc2cccc3c(OC)ccc1c23 |  | inconclusive: 20 µM [quencher, side channel, partial curve]
O=C(/C=C/c1ccccc1)OCc1cncs1 |  | inconclusive: 25.1 µM [quencher, side channel, single point]
COCCn1c(C)cc(C(=O)CSc2cc(C)c3ccccc3n2)c1C |  | inconclusive: 0.0251 µM [fluorescent, side channel, full curve]
COCCCNC(=S)NNC(=S)NCCCOC | inactive: -0.121% | 

Structure (SMILES) | activity change, negative = inhibition | Potency
O=C(O)c1ccc(Oc2cccc([N+](=O)[O-])c2)cc1C(=O)O |  | inconclusive: 35.5 µM [quencher, side channel, single point]
COc1cc(/C=N/NC(=O)c2cc(-c3ccccc3)nc3ccccc23)ccc1O |  | inconclusive: 17.8 µM [quencher, side channel, partial curve]
COCCn1c(-c2ccc(Br)cc2)nc2oc3cc(OC)ccc3c(=O)c2c1=O |  | inconclusive: 28.2 µM [fluorescent, side channel, single point]
Cc1c(C(=S)NC(=O)C2CC2)c(=O)n(-c2ccccc2)n1C |  | inconclusive: 22.4 µM [quencher, side channel, single point]
COCCNC(=O)C(c1cccs1)N(C(=O)Cn1nnc2ccccc21)c1cccc(C)c1 (stereo not given) | inactive: 0.707% | 
Cn1c(N)c(C(=O)COC(=O)c2ccc(Cl)c(S(=O)(=O)N3CCCCC3)c2)c(=O)n(C)c1=O |  | inconclusive: 3.16 µM [fluorescent, side channel, full curve, poor fit]
Cn1c(=O)[nH]c(=O)c2c1nc(SCCN1CCCCC1)n2CCCc1ccccc1 | inactive: -11.4% | 
CCC1CCCCN1CCCCOc1cccc(Cl)c1 (stereo not given) |  | inconclusive: 0.794 µM [fluorescent, side channel, single point]
CC(=O)c1ccc(-c2ccc(C(=O)NC3CCCCCC3)o2)cc1 |  | inconclusive: 28.2 µM [quencher, side channel, partial curve]
COc1ccc(C2CC(c3cccs3)=NN2C(=O)c2ccc(Br)o2)cc1 (stereo not given) | inactive: 0.122% | 
COc1ccc(Cn2c(C)nc([N+](=O)[O-])c2SCC(=O)O)cc1[N+](=O)[O-] |  | inconclusive: 25.1 µM [quencher, side channel, partial curve]
COc1cc(C(=O)Nc2nc(-c3cccs3)cs2)cc(OC)c1OC | inactive: 16.4% | 
O=C(N/N=C/c1ccncc1)c1cc2ccccc2o1 |  | inconclusive: 39.8 µM [quencher, single point]
Cc1ccc(C2C(C#N)=C(N)Oc3c2sc2ccccc32)o1 (stereo not given) |  | inconclusive: 14.1 µM [quencher, side channel, partial curve]
CCC(=O)N1c2ccccc2-c2nnc(SC)nc2OC1c1ccc(N(C)C)cc1 (stereo not given) |  | inconclusive: 15.8 µM [quencher, side channel, partial curve, poor fit]
CCN(CC)c1ccc(/C=N/NC(=O)c2ccoc2C)cc1 |  | inconclusive: 35.5 µM [quencher, side channel, single point]
CC1=C(CC(=O)c2ccc(Cl)cc2)C(=O)c2ccccc2C1=O |  | inconclusive: 3.16 µM [quencher, side channel, full curve]
CC(/C=C/C(=O)c1ccc(C)cc1)=C\c1ccccc1 | inactive: -11.8% | 
NC(=O)c1cc([N+](=O)[O-])ccc1NCCN1C(=O)c2ccccc2C1=O |  | inconclusive: 2.82 µM [quencher, side channel, full curve]
O=C(Cn1c(=O)c2c(ncn2Cc2ccccc2)n(Cc2ccccc2)c1=O)NC1CC1 | inactive: 0.0191% | 
